The list shows a part of the results. Shown are side measurements of this screen, not its main read-out; they come without a call.

The assay can be described thus: compounds boosting herpes simplex virus growth – fold increase, host cell viability (AID 1956). Note: tested in PC3 cells. As to conditions: HSV replication augmentation in cells; fold increase: measured here: primary screen fold increase 10 uM, at 10 µM, stronger effect = higher value; viability: measured here: host cell viability series, at 25 µM, stronger effect = lower value.
The term viability denotes a read-out of living cells in per cent, often relative to untreated cells. With `COc1ccc(S(=O)(=O)NNC(=O)C(=O)NNc2ccccn2)cc1`, the fold increase turned out to be 1.34 and the viability worked out at 106%. The matching figures for `CN(CC1CCOCC1)C(=O)CC1C(=O)NCCN1CC1CCCCC1` (stereo unspecified): 1.51 and 105%. In the case of `COc1cccc(C2C=C(c3ccc(Br)s3)Nc3ncnn32)c1OC` (stereo unspecified), the fold increase was found to be 2.99. `COc1ccc(-n2c(COc3ccc4ccccc4c3)nnc2SCC(=O)NCc2ccco2)cc1`: the fold increase came out at 1.36 and the viability was 93.9%. For `CCc1ccc(/C=C2\CN(CC)Cc3c2nc2ccccc2c3C(=O)O)cc1`, in that order: 1.77 and 103%. The matching figures for `CN(CC(CC(=O)Nc1nncs1)c1ccccc1)S(=O)(=O)c1ccccc1` (stereo unspecified): 1.53 and 88.7%. The matching figures for `CC1(C)Cc2c(c(-c3ccco3)nc3sc4c(NCC5CCCO5)ncnc4c23)CO1` (stereo unspecified): 1.4 and 89.8%. In turn, `COc1ccc(Cn2c(C)c(C)c(C#N)c2NC(=O)Nc2cccc(Cl)c2)cc1` displayed a fold increase of 1.38. On to `CCCC[n+]1ccn(C2=C([O-])c3ccccc3C(=O)/C2=N\S(=O)(=O)c2ccc(Br)cc2)c1`, for which the fold increase stood at 1.99 and the viability is 99.7%. The matching figures for `CNC(=O)NC1CCCCc2sccc21` (stereo unspecified): 1.44 and 100%.

In turn, `CC(=O)C1=C(C)NC(SCc2cccc3ccccc23)=C(C#N)C1c1ccco1` (stereo unspecified) came in with a fold increase of 1.35.

For `CC(=O)Nc1cccc(C2=CC(c3ccco3)n3ncnc3N2)c1` (stereo unspecified), the fold increase stood at 2.92 and the viability came to 95.9%. In turn, `N#CC1=C(N)n2c(s/c(=C\c3cccs3)c2=O)=C(C#N)C1c1cccs1` (stereo unspecified) had a fold increase of 2.61. On to `O=C(O)c1ccccc1N/N=C/c1c(Sc2nnnn2-c2ccccc2)nc2ccccn2c1=O`, for which the fold increase was determined as 10 and the viability came out at 101%. The matching figures for `Cc1cc(O)c(C(C)C)cc1N=Nc1ccccc1C(=O)O`: 1.4 and 95.4%. For `Cc1ccc(NS(=O)(=O)c2ccc(Br)cc2)nc1`, in that order: 1.65 and 87.7%. Turning to `CCCOc1ccc(C(C)=O)cc1CSc1nc(O)cc(=O)[nH]1`, the fold increase is 1.2. In the case of `C=CC1=C(C(=O)O)N2C(=O)C(NC(=O)Cc3ccccc3)C2SC1` (stereo unspecified), the fold increase was 1.38 and the viability was determined as 97.1%. For `Cc1sc2ncnc(N=Nc3c(O)[nH]c4ccccc34)c2c1C`, in that order: 1.49 and 96.1%. `O=c1[nH]c2cc(Br)cnc2nc1/C=C(\O)c1ccc(F)cc1`: the fold increase amounted to 2.45 and the viability turned out to be 90.3%. For `COc1cc(C=C(c2nc3ccccc3s2)c2nc3ccccc3s2)ccc1O`, in that order: 2.36 and 95.7%. With `O=C(Cc1cccs1)Nc1nc(-c2cccnc2)cs1`, the fold increase is 1.32. In the case of `COc1ccccc1-c1nn2c(C(F)(F)F)nnc2s1`, the fold increase came out at 1.47 and the viability was determined as 96.4%. For `COc1ccccc1NS(=O)(=O)c1cc([N+](=O)[O-])ccc1N/N=C/c1c(C)[nH]c2ccccc12`, in that order: 1.56 and 90.9%. The matching figures for `O=C(N/N=C/c1sc(N2CCOCC2)nc1-c1ccccc1)c1cccc(S(=O)(=O)N2CCCC2)c1`: 1.47 and 31.1%. For `COc1cc(/C=C2\SC(=S)N(NC(=O)c3ccncc3)C2=O)ccc1O`, in that order: 8.18 and 96.1%.

The record behind these values is PubChem BioAssay AID1956 (SRMLSC, 2009).
